The values below come from PMC5700166.

Holding throughout (test): protein-binding microarray (PBM)
Conditions in all cases: PBM: ~300 nM protein, 6 mM HEPES pH 7.8, 80 mM KCl, 0.5 mM EDTA, 0.5 mM EGTA, 6% glycerol, 35 ng/ul poly-dIdC, 1% milk, 1 h, room temperature; Ap Aiptasia and Nv Nematostella (sea anemones) / Co Capsaspora / Aq Amphimedon (sponge) / Dm Drosophila / Hu human; RHD is the Rel homology domain; high values mean tight binding; most listed sequences are background and not binding sites; double strand, one strand shown

The target of assay [1] is T1, GST-Ap-NF-kB RHD (UniProt A0A913YAJ5).
T1 sequence: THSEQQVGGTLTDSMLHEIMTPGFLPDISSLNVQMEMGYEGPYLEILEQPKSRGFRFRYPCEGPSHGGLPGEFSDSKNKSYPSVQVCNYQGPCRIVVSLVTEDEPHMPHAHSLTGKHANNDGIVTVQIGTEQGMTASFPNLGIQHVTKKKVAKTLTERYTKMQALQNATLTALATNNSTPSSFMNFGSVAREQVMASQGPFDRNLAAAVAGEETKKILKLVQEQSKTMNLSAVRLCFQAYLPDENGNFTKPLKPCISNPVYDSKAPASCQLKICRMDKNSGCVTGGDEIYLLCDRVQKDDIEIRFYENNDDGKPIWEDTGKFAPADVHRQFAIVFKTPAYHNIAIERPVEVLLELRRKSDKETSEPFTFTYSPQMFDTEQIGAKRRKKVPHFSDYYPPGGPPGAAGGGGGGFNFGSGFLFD

The target in assay [2] is T2, GST-Nv-NF-kB (Cys allele) (UniProt E5G601).
T2 sequence: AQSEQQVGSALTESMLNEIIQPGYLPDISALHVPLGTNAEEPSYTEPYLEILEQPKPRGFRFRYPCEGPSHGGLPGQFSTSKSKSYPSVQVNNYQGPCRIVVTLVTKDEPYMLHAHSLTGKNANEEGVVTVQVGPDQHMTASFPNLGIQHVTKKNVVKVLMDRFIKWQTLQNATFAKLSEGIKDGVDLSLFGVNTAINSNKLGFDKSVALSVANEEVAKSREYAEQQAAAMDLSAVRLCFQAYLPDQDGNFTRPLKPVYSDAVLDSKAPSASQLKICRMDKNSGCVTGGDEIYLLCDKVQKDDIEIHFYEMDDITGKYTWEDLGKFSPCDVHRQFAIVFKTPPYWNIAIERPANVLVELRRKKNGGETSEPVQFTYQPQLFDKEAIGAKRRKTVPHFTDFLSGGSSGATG

Assay [3] has as its target T3, GST-Co-NF-kB (UniProt F1ARL5).
T3 sequence: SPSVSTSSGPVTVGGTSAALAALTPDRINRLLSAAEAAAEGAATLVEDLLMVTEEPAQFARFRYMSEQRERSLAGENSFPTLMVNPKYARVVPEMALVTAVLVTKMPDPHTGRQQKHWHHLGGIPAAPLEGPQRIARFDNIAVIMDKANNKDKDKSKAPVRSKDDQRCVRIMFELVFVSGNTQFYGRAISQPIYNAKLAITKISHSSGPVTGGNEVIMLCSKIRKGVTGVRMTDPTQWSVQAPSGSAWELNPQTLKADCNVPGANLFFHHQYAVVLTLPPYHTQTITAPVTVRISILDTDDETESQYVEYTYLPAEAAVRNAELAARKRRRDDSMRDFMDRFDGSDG

The target of assay [4] is T4, GST-Dm-Relish (UniProt Q94527).
T4 sequence: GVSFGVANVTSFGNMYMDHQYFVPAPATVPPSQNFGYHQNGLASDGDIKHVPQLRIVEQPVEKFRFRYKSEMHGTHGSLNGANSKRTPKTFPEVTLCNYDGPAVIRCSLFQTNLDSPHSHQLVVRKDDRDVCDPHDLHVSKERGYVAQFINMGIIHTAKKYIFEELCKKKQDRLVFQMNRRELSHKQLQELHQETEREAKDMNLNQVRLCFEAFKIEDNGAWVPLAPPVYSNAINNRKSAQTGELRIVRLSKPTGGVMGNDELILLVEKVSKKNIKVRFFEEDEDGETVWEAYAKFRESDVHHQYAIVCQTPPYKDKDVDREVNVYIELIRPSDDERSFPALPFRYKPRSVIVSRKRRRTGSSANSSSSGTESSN

Assay [5] deals with T5, GST-Aq-NF-kB (UniProt A9Y5G7).
T5 sequence: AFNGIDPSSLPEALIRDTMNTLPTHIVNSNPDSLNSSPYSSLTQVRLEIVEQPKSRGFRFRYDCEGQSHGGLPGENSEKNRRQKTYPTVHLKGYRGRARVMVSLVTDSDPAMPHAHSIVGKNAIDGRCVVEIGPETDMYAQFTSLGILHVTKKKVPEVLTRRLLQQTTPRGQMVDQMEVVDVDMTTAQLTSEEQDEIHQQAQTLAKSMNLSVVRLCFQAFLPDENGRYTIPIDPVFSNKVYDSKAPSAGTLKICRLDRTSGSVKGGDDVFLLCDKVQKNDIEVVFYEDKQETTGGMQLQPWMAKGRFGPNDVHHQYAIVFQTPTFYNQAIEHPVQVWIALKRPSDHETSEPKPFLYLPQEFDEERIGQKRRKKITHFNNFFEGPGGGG

The entries are a selection whose mix differs from that of the whole data set. The list includes weakly bound sequences.

Turning to “CCGATTAACATCACGGCGTTTCCTGATGTTAATCGGGTCTTGATTCGCTTGACGCTGCTG”, the binding signal in assay [1] is -0.117 z-score; in assay [2] it was -0.233 z-score; in assay [3], -0.512 z-score; in assay [4], 0.0703 z-score; in assay [5], 0.675 z-score.
In the case of “CCGATTAACATCAAATGGTAGTCTGATGTTAATCGGGTCTTGATTCGCTTGACGCTGCTG”, the binding signal in assay [1] was 0.11 z-score; in assay [2], 0.0106 z-score; in assay [3], -0.157 z-score; in assay [4] it was -0.103 z-score; in assay [5] it was -0.4 z-score.
For “CCGATTAACATCATTACATGACGTGATGTTAATCGGGTCTTGATTCGCTTGACGCTGCTG”, in that order: -0.372 z-score, -0.243 z-score, -0.375 z-score, 0.252 z-score and -0.225 z-score.
For the sequence “CCGATTAACATCAAGTGCGCCCTTGATGTTAATCGGGTCTTGATTCGCTTGACGCTGCTG”, the binding signal in assay [1] is -0.359 z-score; in assay [2], 0.39 z-score; in assay [3], -1.07 z-score; in assay [4], -0.156 z-score; in assay [5], -0.342 z-score.
For “CCGATTAACATCAGGCTAGGCTTTGATGTTAATCGGGTCTTGATTCGCTTGACGCTGCTG”, in that order: -0.453 z-score, -1.02 z-score, -1.27 z-score, -1.49 z-score and -0.716 z-score.
With “CCGATTAACATCATACTCCTTGATGATGTTAATCGGGTCTTGATTCGCTTGACGCTGCTG”, the binding signal in assay [1] was -0.0989 z-score; in assay [2], -0.589 z-score; in assay [3] it was -0.449 z-score; in assay [4], -0.396 z-score; in assay [5] it was -0.145 z-score.
In the same order, the values of “CCGATTAACATCATTAGGTCCAGTGATGTTAATCGGGTCTTGATTCGCTTGACGCTGCTG” are -0.183 z-score, -0.388 z-score, 0.187 z-score, -0.313 z-score and -0.287 z-score.
In the same order, the values of “CCGATTAACATCAGTGACTCAGTTGATGTTAATCGGGTCTTGATTCGCTTGACGCTGCTG” are -0.166 z-score, -0.3 z-score, -1.06 z-score, -0.548 z-score and -0.281 z-score.
As for “CCGATTAACATCACGCCTCGCGATGATGTTAATCGGGTCTTGATTCGCTTGACGCTGCTG”, the binding signal was -0.568 z-score in assay [1]; -0.716 z-score in assay [2]; -1.84 z-score in assay [3]; -0.65 z-score in assay [4]; -0.49 z-score in assay [5].
On to “CCGATTAACATCAAATACGCGATTGATGTTAATCGGGTCTTGATTCGCTTGACGCTGCTG”, for which the binding signal in assay [1] was -0.397 z-score; in assay [2], -0.564 z-score; in assay [3] it was -0.552 z-score; in assay [4], -0.659 z-score; in assay [5], -0.335 z-score.
“CCGATTAACATCACGACGATCCATGATGTTAATCGGGTCTTGATTCGCTTGACGCTGCTG”: the binding signal in assay [1] was -0.218 z-score; in assay [2], -0.642 z-score; in assay [3], 0.00596 z-score; in assay [4] it was -0.42 z-score; in assay [5], -0.495 z-score.
In the case of “CCGATTAACATCACTGGAATTTCTGATGTTAATCGGGTCTTGATTCGCTTGACGCTGCTG”, the binding signal is 0.353 z-score in assay [1]; -0.329 z-score in assay [2]; 0.367 z-score in assay [3]; 0.851 z-score in assay [4]; 0.936 z-score in assay [5].
In the case of “CCGATTAACATCACTTAGATTAGTGATGTTAATCGGGTCTTGATTCGCTTGACGCTGCTG”, the binding signal in assay [1] was -0.316 z-score; in assay [2] it was -0.457 z-score; in assay [3], -0.662 z-score; in assay [4], -0.0724 z-score; in assay [5], -0.469 z-score.
